From PubChem BioAssay AID1259400 (National Center for Advancing Translational Sciences (NCATS), 2018)
Among all 350,000 compounds or so, about 2,100 (0.6%) were called active. The shares of active, inactive and inconclusive entries below differ from those in the screen.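 Rule for the calls: active = activity change of -60% or lower, but not beyond a set lower limit; inconclusive = change between -60% and -40%, or beyond the set limit; inactive = change above -40%.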

Biological target: Relaxin receptor 1 (Homo sapiens) (UniProt Q9HBX9)
Chain of UniProt Q9HBX9 (Q9HBX9 whole entry, looked up): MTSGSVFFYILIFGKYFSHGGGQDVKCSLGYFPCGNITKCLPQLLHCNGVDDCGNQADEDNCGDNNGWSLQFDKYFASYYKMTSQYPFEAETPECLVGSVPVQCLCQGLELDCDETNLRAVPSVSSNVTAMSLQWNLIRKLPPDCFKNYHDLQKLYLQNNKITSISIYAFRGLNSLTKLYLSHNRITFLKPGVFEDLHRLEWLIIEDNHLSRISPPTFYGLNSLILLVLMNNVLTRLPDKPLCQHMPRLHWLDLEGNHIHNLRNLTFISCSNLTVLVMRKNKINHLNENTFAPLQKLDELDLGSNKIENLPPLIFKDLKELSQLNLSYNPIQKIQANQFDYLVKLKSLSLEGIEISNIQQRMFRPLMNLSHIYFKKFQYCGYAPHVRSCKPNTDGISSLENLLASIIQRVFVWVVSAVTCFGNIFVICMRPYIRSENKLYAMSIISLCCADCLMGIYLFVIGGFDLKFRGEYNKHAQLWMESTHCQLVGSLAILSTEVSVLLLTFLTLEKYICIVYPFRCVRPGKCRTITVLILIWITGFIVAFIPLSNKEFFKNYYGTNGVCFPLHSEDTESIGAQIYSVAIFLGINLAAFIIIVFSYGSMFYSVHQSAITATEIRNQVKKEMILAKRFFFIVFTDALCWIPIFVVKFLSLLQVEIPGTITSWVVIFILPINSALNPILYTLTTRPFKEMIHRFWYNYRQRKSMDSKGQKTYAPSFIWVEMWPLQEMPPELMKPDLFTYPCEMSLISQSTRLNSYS
Assay: qHTS Assay for Antagonists of the Relaxin Receptor RXFP1
Settings: HEK293-RXFP1, relaxin-stimulated cAMP HTRF, 30 min; at 57.5 µM; active compounds read low
% is set by controls: 0 for no effect and ±100 for the full control effect.

| SMILES | activity change, negative = inhibition |
| --- | --- |
| O=C(CN1CCc2ccccc21)NN1CC(=O)N(c2ccc(Cl)cc2)CC1=O | inconclusive: -48% |
| Cc1oc2ccc(O)c(CN(C)Cc3ccccc3)c2c1C(=O)Nc1cccc(Cl)c1C | inconclusive: -50.2% |
| CC(/C=N/NC(=O)c1cc(-c2ccc(C)s2)[nH]n1)=C\c1ccccc1 | inconclusive: -44.7% |
| Oc1ccc(NCc2ccccc2OCc2ccccc2F)cc1 | inconclusive: -49.2% |
| C/C=C/c1cc(CN2CCN(c3ccc(OC)cc3)CC2)c(O)c(OC)c1 | inconclusive: -54.2% |
| NS(=O)(=O)c1cccc(NC(=O)CSc2nc3ccccc3n2-c2ccccc2)c1 | inconclusive: -44.6% |
| O=C(NC(=S)N1CCN(c2ccc(Cl)cc2[N+](=O)[O-])CC1)c1cccs1 | active: -64.8% |
| COc1ccc(NC(=O)CSc2nnnn2C2CCCCC2)cc1 | active: -78.4% |
| O=C(NCc1ccc(F)cc1)C(c1ccccc1)N(C(=O)c1csnn1)C1CC1 (stereo not given) | inconclusive: -45.6% |
| Fc1ccc(-c2csc3ncnc(N4CCN(c5ccccc5)CC4)c23)cc1 | active: -65.5% |
| CC(CC(=O)Nc1cccc(Cl)c1)c1ccccc1 (stereo not given) | inconclusive: -48.2% |
| Cc1nn(-c2ccccc2)c(C)c1NC(=O)COc1ccc(Br)cc1Cl | inconclusive: -45.4% |
| Cc1ccc(C)n1-c1nn(S(=O)(=O)c2cccc(C(F)(F)F)c2)c2cccc(F)c12 | inconclusive: -53.7% |
| COC(=O)c1ccc(OC(=O)/C=C/c2ccco2)cc1 | inconclusive: -43.5% |
| O=C(CCC1CCCCC1)Nc1cc(C(F)(F)F)ccc1N1CCOCC1 | inconclusive: -41.3% |
| COc1ccc(/C=C(/NC(=O)c2ccccc2)C(=O)N/N=C/c2cccs2)cc1OC | inactive: 11% |
| O=C(CSc1nc(O)cc(=O)n1-c1ccccc1)Nc1ccc(Br)cn1 | inconclusive: -43.4% |
| O=C(CN1c2ccccc2Sc2ccccc21)NNC(=O)Nc1cccc(Cl)c1 | inconclusive: -53.5% |
| OC(CN(Cc1ccccc1)Cc1ccccc1)c1ccccc1 (stereo not given) | inconclusive: -55% |
| COc1ccc(Cc2nnc(NC(C)=O)s2)cc1 | inconclusive: -44.3% |
| COc1ccc(CCC(=O)NCCS(=O)(=O)N2CCN(c3ccccc3OC)CC2)cc1 | inconclusive: -46.4% |
| CCn1ccnc1CN(C)Cc1cn(-c2ccc(C)cc2)nc1-c1cccc(C)c1 | inconclusive: -44.8% |
| O=C1Cc2cc(S(=O)(=O)NCc3ccccc3Cl)cc3c2N1CCC3 | inconclusive: -46.3% |
| O=C1CC(c2ccccc2)=NN1c1nc(-c2ccccc2)cs1 | inconclusive: -43.6% |
| Cc1ccc(-c2csc(Nc3ccc(C(=O)O)cc3)[n+]2Cc2ccccc2)cc1 | inactive: -26.3% |
| S=C(NCCc1ccccc1)Nc1cccc2cnccc12 | inactive: -13.6% |
| Cc1ccc(NC(=O)c2nc(S(=O)(=O)Cc3ccccc3C)ncc2Cl)cc1C | active: -74.1% |
| CCCn1nnnc1SCC(=O)N1C(C)CCCC1C (stereo not given) | inactive: -2.86% |

| SMILES | activity change, negative = inhibition |
| --- | --- |
| Cc1ccc2c(CN3CCN(C(=O)c4ccc(Br)cc4)CC3)cc(=O)oc2c1 | inactive: -1.72% |
| Cc1ccc(S(=O)(=O)N2CCc3cc(C(=O)Nc4c(F)cccc4F)ccc32)cc1 | inactive: -1.48% |
| Cc1ccc(Cl)c(NC(=O)COC(=O)c2ccccc2C(=O)c2ccc(Cl)c([N+](=O)[O-])c2)c1Cl | inconclusive: -53.8% |
| CCOC(=O)c1ccc(NC(=O)CCS(=O)(=O)c2ccc(Br)s2)cc1 | inactive: -11.4% |
| Cc1cccc(Cc2cnc(N3C(=N)SC(C)C3=O)s2)c1 (stereo not given) | inconclusive: -58.8% |
| O=C(/C(=C/O)N=Nc1ccccc1)c1cccs1 | inconclusive: -45.5% |
| CO[C@]12C[C@@H](COC(=O)c3cncc(Br)c3)CN(C)[C@@H]1Cc1cn(C)c3cccc2c13 | inactive: -38.1% |
| Cc1ccc(C(=O)N2CCCC(N(C)Cc3ccccc3)C2)s1 (stereo not given) | inactive: -13% |
| CC1CCN(c2ccccc2NC(=S)NC(=O)C(C)(C)C)CC1 | inconclusive: -47.5% |
| CCOc1cccc(C2CC(=O)Nc3cc4c(cc32)OCCO4)c1 (stereo not given) | inactive: 2.58% |
| CC(C)Cc1cc(C(=O)Nc2sc3c(c2C#N)CCC3)no1 | active: -66% |
| CCOc1ccc(/C=C2\SC(=S)N(CC(=O)N(CCO)C(C)(C)C)C2=O)cc1 | inconclusive: -40.8% |
| CCCc1ccc2oc(C(=O)NCCc3cnn(C)c3)c(C)c2c1 | inconclusive: -51.8% |
| Cc1ccccc1C(=O)N1CCN(c2ccc(NC(=O)c3ccc4c(c3)OCCO4)cc2)CC1 | inconclusive: -54.5% |
| COc1ccc(C(=O)NC2CCCc3c2cnn3-c2cccc(C)c2C)c(OC)n1 (stereo not given) | active: -116% |
| COc1ccc(CCNC(=O)c2cnn(-c3ccc(F)cc3)c2C2CCN(C(=O)OC(C)(C)C)CC2)c(OC)c1 | inactive: -17.1% |
| CCCCNC(=O)c1cc2c(C)cc(C)cc2[nH]1 | inconclusive: -43.9% |
| O=c1c2c(nc3c(-c4ccccc4)c[nH]n13)CCC2 | inactive: -2.57% |
| COc1cc(/C=C(\C#N)C(=O)NCC2CCCO2)cc(OC)c1OC (stereo not given) | inconclusive: -52.8% |
| O=C(CSc1n[nH]c(=O)n1C1CC1)Nc1ccc(F)c(Cl)c1 | active: -78.2% |
| COCCNC(=O)c1ccc(Cn2c(=S)[nH]c3cc4c(cc3c2=O)OCO4)cc1 | active: -104% |
| Nc1nonc1-n1nnc(C(=O)N/N=C/c2cccc(Cl)c2)c1-c1ccc2c(c1)OCO2 | inconclusive: -45.7% |
| O=C(NNc1nc2c(F)cc(F)cc2s1)C1=COCCO1 | inactive: -7.09% |
| Cc1ccc(C)c(OCCC(=O)OCC(=O)N(C)c2c(N)n(Cc3ccccc3)c(=O)[nH]c2=O)c1 | active: -63.5% |
| Cc1cc(C)cc(NC(=O)Cn2cc(S(=O)(=O)NC(C)(C)C)c(S(=O)(=O)NC(C)(C)C)c2)c1 | inactive: -12.7% |
| CC1CCCCN1S(=O)(=O)c1ccc(C(=O)Nc2nnc(-c3ccncc3)o2)cc1 (stereo not given) | inconclusive: -56.7% |
| CCc1ccccc1NC(c1nnc(-c2cccc(F)c2)o1)c1ccc(F)cc1Cl (stereo not given) | inconclusive: -44.8% |
